The supplement of paper PMC4604168 (melanoma cell lines)
The other results are listed elsewhere or left out. Repeats are few or missing, and single values can be far off.

system: COLO829; assay: cell count relative to DMSO control; melanoma cells; higher = more viable cells; settings: library dose: standard library concentration; 72 h
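Further: cells treated in 1,536-well plates, then fixed and DAPI-stained, with nuclei counted from automated high-throughput microscope images.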

For `Cc1cc(Nc2cc(N3CCN(C)CC3)nc(/C=C/c3ccccc3)n2)n[nH]1` + COC(=O)c1sccc1S(=O)(=O)Nc1ccc(Nc2ccccc2)cc1OC [GSK0660] (first compound 0.2 µM, partner dose 5 µM), which cell count is on record?
Its cell count is 72.9%.

With `Cn1c(=O)n(-c2ccc(C(C)(C)C#N)cc2)c2c3cc(-c4cnc5ccccc5c4)ccc3ncc21` + COc1cc(N2CCC(N3CCN(C)CC3)CC2)ccc1Nc1ncc(Cl)c(Nc2ccccc2S(=O)(=O)C(C)C)n1 [NVP-TAE684] (first compound 0.02 µM, partner dose 0.4 µM) as the compound, how does the cell count read?
The cell count was 72.2%.

How did the cell count turn out when `COc1ccc(C2=N[C@@H](c3ccc(Cl)cc3)[C@@H](c3ccc(Cl)cc3)N2C(=O)N2CCNC(=O)C2)c(OC(C)C)c1` [Nutlin-3] + O=C(CCCCCCC(=O)Nc1ccccc1)NO [vorinostat] (first compound 0.5 µM, partner dose 0.4 µM) was run?
Its cell count is 54.6%.
